# Laboratory results as given in the supplement of paper PMC7125110.
# ± gives the standard error. This sample is rich in variants without activity.
# B1: glmS ribozyme (parent)
# chain: AUAAAAGCGCCAGAACUACAGAAAUGUAGUUGACGAGGAGGAGGUUUAUCGAAUUUUCGGCGGAUGCCUCCAAA
# Key:
# Settings in all cases: with glucosamine-6-phosphate
# [1] = variants of: B1; test: self-cleavage kobs at 640 uM GlcN6P; higher = faster cleavage; RNA array
# Method in brief: (§1)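 kcat and KM were obtained from weighted Michaelis–Menten fits across concentrations of kobs values. Those came from one- or two-exponential decay fits to per-tile medians normalised to baseline and to non-cleaving reference variants. The variants were barcoded ribozymes transcribed in situ by E. coli RNA polymerase on sequenced MiSeq chips and tracked through a hybridised Cy3 probe at 37 °C, with 40 μM to 10 mM glucosamine-6-phosphate in HEPES/KCl/Mg(OAc)2 buffer flowed in.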
# [2] = variants of: B1; test: self-cleavage kobs at 160 uM GlcN6P; higher = faster cleavage; RNA array
# Method in brief: as §1
# [3] = variants of: B1; test: self-cleavage kobs at 2500 uM GlcN6P; higher = faster cleavage; RNA array
# Method in brief: as §1
# [4] = variants of: B1; test: self-cleavage kobs at 10000 uM GlcN6P; higher = faster cleavage; RNA array
# Method in brief: as §1
Variant,self-cleavage kobs at 640 uM GlcN6P [1] [s⁻¹],self-cleavage kobs at 160 uM GlcN6P [2] [s⁻¹],self-cleavage kobs at 2500 uM GlcN6P [3] [s⁻¹],self-cleavage kobs at 10000 uM GlcN6P [4] [s⁻¹]
G32A G51U A52U G60C G62C,< 1e-05,–,–,–
U31G G38C G44A U46C,< 1e-05,–,–,–
G29C U57A,< 1e-05,–,–,–
G32U G60A,< 1e-05,< 1e-05,< 1e-05,< 1e-05
U31G G38A A48C,< 1e-05,–,< 1e-05,–
G32C A48C G62U,< 1e-05,–,< 1e-05,–
U31A A36G C68U,< 1e-05,–,–,–
A23U C34G G44C,< 1e-05,–,–,–
U30A U55C C68G,< 1e-05,–,< 1e-05,–
U30G G38A U46G A52U C71U,< 1e-05,< 1e-05,–,–
C16U G37C A39U U49G,< 1e-05,–,< 1e-05,–
A33C C50A G59C C68U C71U,< 1e-05,–,–,–
U30G A33U A39G G63A,< 1e-05,–,< 1e-05,< 1e-05
A33C G35A G51C,< 1e-05,< 1e-05,< 1e-05,–
U31G G60U U65A,< 1e-05,–,–,–
U31A G60U C71A,< 1e-05,–,< 1e-05,–
G29U G32U G44C U65C,< 1e-05,–,–,–
U30C U31G C50G C70G,0.000289 ± 0.0001,0.000158 ± 4.4e-05,0.00026 ± 5.8e-05,–
U25C A52G G59U,< 1e-05,< 1e-05,–,–
U30A G38C A39U,< 1e-05,–,–,–
G32A A36U,< 1e-05,< 1e-05,–,–
U30G G40A G51U G60U C68U C71G,< 1e-05,–,–,–
C16U U46C A53U,0.000328 ± 7.3e-05,–,0.00078 ± 0.00025,–
G32A G62U,< 1e-05,< 1e-05,–,< 1e-05
U30A U65G,0.000275 ± 8.9e-05,6.8e-05 ± 2.4e-05,0.000614 ± 0.00016,0.00141 ± 0.00016

Variant,self-cleavage kobs at 640 uM GlcN6P [1] [s⁻¹],self-cleavage kobs at 160 uM GlcN6P [2] [s⁻¹],self-cleavage kobs at 2500 uM GlcN6P [3] [s⁻¹],self-cleavage kobs at 10000 uM GlcN6P [4] [s⁻¹]
U30A A48C G51U C71G,< 1e-05,–,< 1e-05,–
G29U G37A U49A C58G G62U,< 1e-05,–,–,–
G32A U46G C61G,< 1e-05,–,< 1e-05,–
G29U C58A,5.13e-05 ± 1e-05,3.39e-05 ± 1.2e-05,0.000103 ± 1e-05,0.000231 ± 3e-05
G29U A42C,< 1e-05,< 1e-05,–,< 1e-05
G29U G41A U57A G66U,< 1e-05,< 1e-05,< 1e-05,–
U31A G60C G62C,< 1e-05,< 1e-05,< 1e-05,–
G32U G60U C70U,< 1e-05,–,< 1e-05,–
G32C G43C,< 1e-05,< 1e-05,–,–
G32C G40U G59C,< 1e-05,–,< 1e-05,–
U30G A39G G59U,< 1e-05,–,–,–
A33C A36G G44U C50A C67U,< 1e-05,–,–,–
G32U G63A C70U,< 1e-05,–,–,–
U31A U57A,4.97e-05 ± 2.1e-05,< 1e-05,0.000125 ± 2.8e-05,0.000194 ± 2.7e-05
U31A G41U C61U U69G,< 1e-05,–,< 1e-05,–
U30A G44A G51U G66U,< 1e-05,–,–,–
A33C A53U U55A G62C,< 1e-05,–,< 1e-05,–
G32A G37C A64C,< 1e-05,–,–,< 1e-05
U30C G32U C34G G51U,< 1e-05,–,< 1e-05,–
C16U U30A A42U,< 1e-05,–,–,–
U30G C68G C70G,< 1e-05,–,< 1e-05,–
U31G U45G U55G G60C,< 1e-05,–,–,–
G32A G44A A64C,< 1e-05,–,–,–
G29U G38C G41U G63C C70G,< 1e-05,–,< 1e-05,–
G29A G51U,< 1e-05,–,< 1e-05,< 1e-05

Variant,self-cleavage kobs at 640 uM GlcN6P [1] [s⁻¹],self-cleavage kobs at 160 uM GlcN6P [2] [s⁻¹],self-cleavage kobs at 2500 uM GlcN6P [3] [s⁻¹],self-cleavage kobs at 10000 uM GlcN6P [4] [s⁻¹]
C16U G32C G35A C68A,< 1e-05,–,< 1e-05,–
G32U U49A G60U C70A,< 1e-05,–,–,–
U30A A48C C58U G59C,< 1e-05,–,–,–
A33C A48C C71A,< 1e-05,–,< 1e-05,–
U30C A36G U45A,< 1e-05,–,–,–
U31C G44A U46G G59A C70U,< 1e-05,–,< 1e-05,–
C19A G35U G37C,< 1e-05,–,–,–
A33C G37A G38C G44A C50U C61U,< 1e-05,–,< 1e-05,–
G32C A39G G44C U49A,< 1e-05,–,–,–
U30C G43U U46A U55G G60A,< 1e-05,–,< 1e-05,< 1e-05
U31C G41U,5.36e-05 ± 1e-05,–,0.000117 ± 1.7e-05,–
C16U G63C U65G,< 1e-05,–,–,–
C16U C34G G41U,< 1e-05,–,–,–
G29U A33U G35A A53U,< 1e-05,–,< 1e-05,–
A33C A52G C67U,< 1e-05,–,< 1e-05,–
U31A A33C U46G C68G,< 1e-05,–,< 1e-05,–
G32U G41A C68A,< 1e-05,–,–,–
G32A U45G,0.000212 ± 4.3e-05,–,0.000204 ± 5.3e-05,–
U31G G38U A53G C68A C71A,0.000204 ± 7.6e-05,–,–,–
U31A C58U A64C,< 1e-05,–,–,–
G32U A33G A36C G37U U49G,< 1e-05,–,–,–
U31C A39G A42C,< 1e-05,–,< 1e-05,–
U31A G35C G37A G62A,< 1e-05,–,–,–
G29U U30C A52G,< 1e-05,–,< 1e-05,–
U31A U55G C67U,0.000859 ± 0.00023,–,–,–

Variant,self-cleavage kobs at 640 uM GlcN6P [1] [s⁻¹],self-cleavage kobs at 160 uM GlcN6P [2] [s⁻¹],self-cleavage kobs at 2500 uM GlcN6P [3] [s⁻¹],self-cleavage kobs at 10000 uM GlcN6P [4] [s⁻¹]
G32U A33G,< 1e-05,–,–,–
G29U A53C,0.00015 ± 7.4e-05,–,–,–
G32C C34A U49C,< 1e-05,–,< 1e-05,–
G29C G59U,< 1e-05,< 1e-05,–,–
U31C C50G G59A C71G,7.63e-05 ± 1.9e-05,–,–,–
U31C G41A G59U,< 1e-05,< 1e-05,< 1e-05,–
U30A C71G,0.000371 ± 0.00016,–,0.000129 ± 5.8e-05,0.00032 ± 7.6e-05
G32U A39U G40C U45G U46G U57A A64U,< 1e-05,–,–,< 1e-05
U30C A64G,0.000122 ± 1.4e-05,4.88e-05 ± 1.1e-05,0.000267 ± 3e-05,0.000293 ± 4.9e-05
C19A G35A,< 1e-05,–,< 1e-05,–
G32A A53U G60A,< 1e-05,–,< 1e-05,–
U30G G32A A33U U49A C67A,< 1e-05,–,–,–
U30C G62U U65C,< 1e-05,–,–,–
G29A G38U,< 1e-05,< 1e-05,< 1e-05,–
U30A U46C A64C,< 1e-05,–,–,< 1e-05
G29A A39C C61G,< 1e-05,< 1e-05,–,< 1e-05
G29A G63C C70G,0.000155 ± 4.1e-05,7.77e-05 ± 3e-05,7.4e-05 ± 2.1e-05,–
U30A A36C U57A,< 1e-05,–,–,–
G32U G37A G59C,< 1e-05,–,–,–
C19U G41C A48G U54G U56A,< 1e-05,–,–,–
U30C G44C,< 1e-05,< 1e-05,< 1e-05,–
U30C G44U,< 1e-05,–,< 1e-05,< 1e-05
G29U G44C C68U,< 1e-05,–,< 1e-05,–
U31C G37U A48G C61A,< 1e-05,–,–,–
G32A G41U G51U A53U,< 1e-05,–,–,–

Variant,self-cleavage kobs at 640 uM GlcN6P [1] [s⁻¹],self-cleavage kobs at 160 uM GlcN6P [2] [s⁻¹],self-cleavage kobs at 2500 uM GlcN6P [3] [s⁻¹],self-cleavage kobs at 10000 uM GlcN6P [4] [s⁻¹]
G32U A39C G41C A64U,< 1e-05,–,–,< 1e-05
U31G G41A A42C U55G,< 1e-05,< 1e-05,< 1e-05,–
C19A C34G A39C,< 1e-05,< 1e-05,< 1e-05,–
G29A G40C U55A U56G C67U,< 1e-05,< 1e-05,< 1e-05,–
C16U G29U G63A,< 1e-05,–,–,–
G32U U46G C61G,< 1e-05,–,–,–
U30A A48G C50U G62U C71U,< 1e-05,–,–,–
U30C C61G,< 1e-05,–,–,< 1e-05
G32U U47A,8.3e-05 ± 2e-05,5.78e-05 ± 1.8e-05,0.000375 ± 0.00014,0.000493 ± 0.00011
C16U U30A G43A C70A,< 1e-05,< 1e-05,–,–
A33C G35A U55C,< 1e-05,–,< 1e-05,–
G29U C34U U55A,< 1e-05,–,< 1e-05,–
U30A G51C,< 1e-05,–,–,< 1e-05
U30C C71U,9.35e-05 ± 1e-05,4.2e-05 ± 6.8e-06,0.000195 ± 1.6e-05,0.000307 ± 2.3e-05
U31A A42U U57A A64G C71A,< 1e-05,–,–,–
U31C U56G C58A G62A,< 1e-05,–,–,–
U30C C34U U57A,< 1e-05,–,–,–
A33C A48C U54G C61U G63C,< 1e-05,–,–,–
G32U G37U G59U,< 1e-05,–,–,–
G32U G43C U45G U46G C70A,< 1e-05,–,< 1e-05,–
G32U A36C G43A A48C C50U,< 1e-05,–,–,–
